Measured values as given in paper PMC4336329 (PLoS ONE, 2015).
The whole screen tested about 310,000 compounds, of which about 14,000 (4.5%) showed an effect of 50% or more. Effects have a minus sign here. Some of the results follow.

biological target: human ether-à-go-go-related gene (hERG) potassium channel (human, UniProt Q12809); test: primary screen, population patch clamp on CHO cells stably expressing hERG
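Note: peak tail current of the secondary pulse compared with the same well before compound.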

Chain of human ether-à-go-go-related gene (hERG) potassium channel (Q12809 whole entry, looked up): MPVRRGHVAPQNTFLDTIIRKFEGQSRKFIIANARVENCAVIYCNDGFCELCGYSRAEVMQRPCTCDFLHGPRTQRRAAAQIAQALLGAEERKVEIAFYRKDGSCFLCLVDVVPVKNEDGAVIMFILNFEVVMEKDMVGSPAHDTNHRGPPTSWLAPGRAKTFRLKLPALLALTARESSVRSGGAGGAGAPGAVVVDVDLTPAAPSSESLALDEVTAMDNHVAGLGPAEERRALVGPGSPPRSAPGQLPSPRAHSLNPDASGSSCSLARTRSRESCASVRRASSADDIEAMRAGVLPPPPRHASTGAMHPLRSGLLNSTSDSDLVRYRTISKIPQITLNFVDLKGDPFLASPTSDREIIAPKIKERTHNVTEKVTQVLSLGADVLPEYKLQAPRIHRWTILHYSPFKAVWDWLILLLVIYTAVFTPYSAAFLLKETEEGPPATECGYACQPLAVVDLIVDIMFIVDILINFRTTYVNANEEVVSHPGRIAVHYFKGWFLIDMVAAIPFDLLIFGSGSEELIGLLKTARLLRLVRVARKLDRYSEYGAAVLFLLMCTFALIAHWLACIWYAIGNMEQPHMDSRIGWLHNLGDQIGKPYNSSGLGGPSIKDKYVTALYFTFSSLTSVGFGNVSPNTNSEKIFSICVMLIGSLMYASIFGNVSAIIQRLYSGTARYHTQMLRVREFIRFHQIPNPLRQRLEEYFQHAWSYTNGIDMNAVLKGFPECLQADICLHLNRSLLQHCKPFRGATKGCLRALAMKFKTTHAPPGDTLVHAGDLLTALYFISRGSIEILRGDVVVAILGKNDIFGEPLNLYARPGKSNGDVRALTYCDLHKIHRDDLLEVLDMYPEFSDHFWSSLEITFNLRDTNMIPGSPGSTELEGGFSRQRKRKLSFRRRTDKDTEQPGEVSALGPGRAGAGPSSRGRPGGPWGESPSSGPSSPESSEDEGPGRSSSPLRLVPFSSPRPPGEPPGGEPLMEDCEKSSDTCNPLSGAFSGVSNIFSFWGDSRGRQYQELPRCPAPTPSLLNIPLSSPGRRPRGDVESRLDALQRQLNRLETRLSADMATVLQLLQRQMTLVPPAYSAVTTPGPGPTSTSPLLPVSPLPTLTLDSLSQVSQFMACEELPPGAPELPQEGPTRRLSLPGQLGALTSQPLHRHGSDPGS

| SMILES | hERG current change (%, negative = inhibition) at 10uM |
| --- | --- |
| CSc1nc(N)c2c(n1)OC(N)=C(C#N)C2c1cccnc1 (stereo not drawn) | -4% |
| Cl.NCCSC1CC(=O)N(c2ccc(Cl)c(Cl)c2)C1=O (stereo not drawn) | 14.6% |
| CN(CC(=O)Nc1ccc(F)c(F)c1)S(=O)(=O)c1cccs1 | -10.6% |
| CC1CCN(C(=O)COC(=O)c2cc(Cl)c3c(c2)OCO3)CC1 | -7.67% |
| CCCc1c(O)c2ccccc2n(-c2ccccc2)c1=O | 6.83% |
| Oc1cccc(C2c3[nH]c4ccccc4c3CCN2Cc2cnn(-c3ccccc3)c2)c1 (stereo not drawn) | -35.3% |
| CCCc1nnc(SCC(=O)N2CCCCC2C)n1CC1CCCO1 (stereo not drawn) | 2.84% |
| CCN(CC(=O)Nc1ccc2c(c1)OCCO2)C(=O)/C=C/c1ccc(OC)cc1OC | -1.41% |
| Cc1ccc(-c2cn(CCC(=O)O)c(-c3ccc(Cl)nc3)n2)cc1 | 10.9% |
| COC(=O)C1=C(C(=O)OC)[C@@H]2Nc3ccccc3[C@@]23C[C@@H](C(=O)OC)N(C(=O)COCc2ccccc2)C3=N1 | -46.4% |
| CCCNC(=O)C(Cc1ccc(Cl)cc1)NC(=O)c1ccc(C#N)cc1 (stereo not drawn) | -15.2% |
| O=C(O)c1nc(NCc2ccccc2)ncc1Cl | 36.6% |
| Cc1ccc(CNc2oc(C)nc2C#N)cc1 | -4.96% |
| Cc1cccc(CCNCc2cc3cc(C)cc(C)c3[nH]c2=O)c1 | -30.8% |
| Cc1ccc(C(C)C)c(OCC(=O)Nc2ccc(Cl)cn2)c1 | -8.82% |
| Cc1cccc(N2CN(Cc3cccnc3)CNC2=S)c1C | 3.54% |
| O=C(NNC(=O)c1cnccc1C(F)(F)F)c1cccc(Cl)c1 | 13.1% |
| COc1ccc2cc(C3OCCO3)c(Cl)nc2c1 | 0.328% |
| CCN(C(=O)c1ccc(S(=O)(=O)N2CCCC2)cc1)C1CCS(=O)(=O)C1 (stereo not drawn) | -4.5% |
| CN(C)C=NC(=O)c1ccc(N2CCN(c3ncc(C(F)(F)F)cc3Cl)CC2)cc1 | 7.74% |
| O=C(Nc1ccccc1)c1ccc(S(=O)(=O)Nc2cccc(O)c2)cc1 | -37.8% |
| C=CCN(CC=C)C(=O)c1ccc(OC2CCN(C(C)=O)CC2)c(OC)c1 | 14% |
| C/C(CCc1ccc2c(c1)OCO2)=N\NC(=O)c1ccccc1Cl | -14.3% |

| SMILES | hERG current change (%, negative = inhibition) at 10uM |
| --- | --- |
| Cc1cc2oc(=O)cc(CN3CCN(Cc4ccccc4)CC3)c2cc1Cl | -22.8% |
| COc1ccccc1N1CCN(C(=O)C(=O)N/N=C/c2ccccc2F)CC1 | -3.77% |
| CC1CC(C)(C)CC2(C1)NC(=O)N(CC(=O)NCc1ccccc1F)C2=O (stereo not drawn) | -17.5% |
| Cc1ccc(C(C(=O)NC(C)(C)C)N(C(=O)c2csnn2)C2CC2)cc1 (stereo not drawn) | 7.23% |
| COc1ccccc1Nc1nc(N)nc(CN2CCN(c3ccccc3)CC2)n1 | -52.9% |
| CCOC(=O)C1CCN(C(=O)CSCc2nc(-c3ccc(OCC)cc3)oc2C)CC1 | -33.4% |
| COc1ccccc1NC(=O)c1sc2ncn(CC(=O)N3CCC(C)CC3)c(=O)c2c1C | 18.2% |
| O=C1SCCc2c1n(Cc1ccccc1)c1ccccc21 | 2.89% |
| COC(=O)c1sccc1NC(=O)c1cccc(Cl)c1 | -27.3% |
| Cc1cccn2c(=O)c3cc(C(=O)NCCCn4ccnc4)n(C)c3nc12 | -11% |
| COc1ccc(S(=O)(=O)Nc2ccc(S(=O)(=O)NCC3CCCO3)cc2)cc1 (stereo not drawn) | 6.4% |
| CCCCc1nnc(NC(=O)CSCc2cc(=O)n3cc(C)sc3n2)s1 | 5.31% |
| CC1C(=O)N2CCCc3cc(NC(=O)C(=O)NCCc4ccccc4)cc1c32 (stereo not drawn) | -10.8% |
| CCOc1ccccc1NC(=O)/C=C/C(N)=O | 7.3% |
| O=C(Nc1cccc(-n2cccn2)c1)C1CCCN(Cc2ccc(C#CCCO)cc2)C1 (stereo not drawn) | -42.4% |
| Cc1cccn2c(CN3CCNC(=O)CC3)c(C(=O)N(C)CCc3ccccc3)nc12 | 6.33% |
| CCc1ccc(OCC(=O)NNC(=O)c2nn(CC)c(=O)c3ccccc23)cc1 | -57.9% |
| Cc1nc2ccc(S(=O)(=O)N(C)CC(=O)NCc3ccc(N(C)C)cc3)cc2s1 | -6.07% |
| CCCCCNC(=O)CCc1ccccc1 | -0.256% |
| CC(=O)c1ccc(OCCCC(=O)Nc2ccc(S(=O)(=O)N3CCOCC3)cc2)cc1 | 3.37% |
| Cc1ccc(S(=O)(=O)N(C)C)cc1NC(=O)COc1ccccc1C(=O)Nc1ccccc1 | -26.6% |
| S=c1[nH]nc(-c2ccc3ccccc3n2)n1-c1ccc2c(c1)OCCO2 | 17.7% |
| CCN1CCCC1CNCc1ccc(Cl)cc1Cl.Cl (stereo not drawn) | -64.6% |

| SMILES | hERG current change (%, negative = inhibition) at 10uM |
| --- | --- |
| Clc1ccc(CN2CCC(c3ccccc3)CC2)cc1 | -59.1% |
| COc1cccc(OCc2cc(C(=O)NCC3CCCCC3)no2)c1 | 20.2% |
| Cc1cccc2sc(NC(=O)C3c4ccccc4Oc4ccccc43)nc12 | 0.113% |
| COc1cccc(-c2nnc(NC(=O)c3ccc(S(=O)(=O)N4CCOCC4)cc3)o2)c1 | -5.19% |
| Cc1cc(OCc2nc(-c3cccs3)no2)cc(C)c1Cl | 17.8% |
| COc1cc(C(CN)CC(=O)O)ccc1O.Cl (stereo not drawn) | 11.9% |
| NC(=O)CCCn1c(C(=O)c2cc(Cl)c(N)c(Cl)c2)c2ccc(C(F)(F)F)cc2[n+]1[O-] | -41.1% |
| COC(=O)C1C(=O)NC(SC)=C(C#N)C1c1ccccc1 (stereo not drawn) | 8.09% |
| CC(C)n1nc(C(=O)NCCCN2CCCC2=O)c2ccccc2c1=O | 8.76% |
| CNC(=O)CSCCn1c(SCC(=O)NC)nc2ccccc2c1=O | 13.1% |
| CCOc1ccc(NC2=CC(=O)CCC2)cc1 | 15.1% |
| COc1ccccc1C(=O)Nc1ccnn1C1CCN(Cc2ccn[nH]2)CC1 | -36.1% |
| CCOC(=O)NC(=O)C(/C=N/c1sccc1C(=O)OC)=C(\C)O | -5.69% |
| COc1cc(Cl)ccc1OCc1cc(C(=O)N2CCCCCCC2)no1 | 10.1% |
| CCSc1ncc(C)cc1[N+](=O)[O-] | -7.74% |
| NC1=NC(c2ccc(Cl)cc2)n2c(nc3ccccc32)N1 (stereo not drawn) | -3.14% |
| COc1ccccc1N1CCN(C(c2ccc(Cl)cc2)c2nnnn2C(C)(C)C)CC1 (stereo not drawn) | 5.14% |
| c1cc(C2CCN(Cc3nc(-c4ccc5c(c4)OCO5)no3)CC2)ccn1 | -19.7% |
| CN1C(=O)/C(=N\OC(=O)c2cccc3ccccc23)c2ccccc21 | 4.54% |
| COc1ccc2c(C)cc(=O)oc2c1C | 6.64% |
| Brc1ccc2c(c1)CNc1c(ncnc1N1CCOCC1)O2 | -15.5% |
| Cc1nnc(SCCc2ccccc2)[nH]c1=O | -7.64% |
| COc1cccc(N(CC(=O)N2CCCC2)S(C)(=O)=O)c1 | 19.6% |

| SMILES | hERG current change (%, negative = inhibition) at 10uM |
| --- | --- |
| N#CCc1nc2ccc(S(=O)(=O)N3CCOCC3)cc2s1 | -9.71% |
| Cc1ccc(C)c(NC(=S)NNC(=O)c2csc(C)c2)c1 | 23.6% |
| O=C(Oc1ccccc1)Oc1ccc2c(c1)oc(=O)c1ccccc12 | 16.9% |
| CC(=O)c1cccc(NC(=O)COC(=O)[C@@H](NC(=O)OCc2ccccc2)C(C)C)c1 | -40.2% |
| CC1CCCN(C(=O)CSc2ncccn2)C1 (stereo not drawn) | 14.8% |
| COC(=O)c1sccc1NC(=O)CNC(=O)c1ccccc1 | -9.02% |
| O=C(O)c1cccc(NCc2cccnc2)c1 | 9.7% |
| CCOc1ccccc1CN1CCCC(CNS(=O)(=O)c2ccc(OC)cc2)C1 (stereo not drawn) | -63.7% |
| O=C(NC1CCCC1)C1CCN(S(=O)(=O)c2ccccc2)CC1 | 4.07% |
| CCOC(=O)C1CCCN(Cc2nc(N)nc(Nc3ccccc3)n2)C1 (stereo not drawn) | -71.2% |
| CCOc1ccc(NC(=O)CSc2nnc(-c3cc(C)[nH]n3)n2N)cc1 | 25.3% |
| Cc1cccc(N(C(=O)CS(=O)CC(=O)Nc2ccc3c(c2)OCO3)C(C)C(=O)NC2CCCC2)c1C (stereo not drawn) | -11.6% |
| O=C(O)c1ccc2c3c(cccc13)C(=O)N(c1ccccc1)C2=O | 6.65% |
| O=C(Nc1cccc(-c2csc(Nc3ccc(Cl)cc3)n2)c1)c1cccc(C(F)(F)F)c1 | 15.1% |
| CC(NC(=O)CCNS(=O)(=O)c1cccc2nsnc12)c1ccccc1 (stereo not drawn) | -8.74% |
| O=C(COC(=O)C1CCCN1C(=O)c1cccs1)c1ccccc1 (stereo not drawn) | -11.6% |
| O=C(CSc1nc2ccccc2s1)N/N=C/c1ccc(C(=O)O)cc1 | 14.6% |
| O=C(O)CN1C(=O)/C(=C/c2ccc(N3CCCCC3)o2)SC1=S | 21.4% |
| Cc1ccc(S(=O)(=O)NC2CCCCC2)cc1C(=O)N1CCC(C(N)=O)CC1 | 8.46% |
| O=C1NC(=Nc2ccc(O)cc2)S/C1=C/c1ccco1 | 16.7% |
| O=C(c1ccco1)N1CCN(S(=O)(=O)Cc2ccc(Cl)cc2)CC1 | -36% |
